The values that follow come from article PMC5700166.

The entries are a selection whose mix differs from that of the whole data set. The list includes weakly bound sequences.

Holding throughout (test): protein-binding microarray (PBM)
Holding throughout (conditions): PBM: ~300 nM protein, 6 mM HEPES pH 7.8, 80 mM KCl, 0.5 mM EDTA, 0.5 mM EGTA, 6% glycerol, 35 ng/ul poly-dIdC, 1% milk, 1 h, room temperature; Ap Aiptasia and Nv Nematostella (sea anemones) / Co Capsaspora / Aq Amphimedon (sponge) / Dm Drosophila / Hu human; RHD is the Rel homology domain; high values mean tight binding; most listed sequences are background and not binding sites; double strand, one strand shown

One assay concerns the target T1, GST-Ap-NF-kB RHD (UniProt A0A913YAJ5).
T1 sequence: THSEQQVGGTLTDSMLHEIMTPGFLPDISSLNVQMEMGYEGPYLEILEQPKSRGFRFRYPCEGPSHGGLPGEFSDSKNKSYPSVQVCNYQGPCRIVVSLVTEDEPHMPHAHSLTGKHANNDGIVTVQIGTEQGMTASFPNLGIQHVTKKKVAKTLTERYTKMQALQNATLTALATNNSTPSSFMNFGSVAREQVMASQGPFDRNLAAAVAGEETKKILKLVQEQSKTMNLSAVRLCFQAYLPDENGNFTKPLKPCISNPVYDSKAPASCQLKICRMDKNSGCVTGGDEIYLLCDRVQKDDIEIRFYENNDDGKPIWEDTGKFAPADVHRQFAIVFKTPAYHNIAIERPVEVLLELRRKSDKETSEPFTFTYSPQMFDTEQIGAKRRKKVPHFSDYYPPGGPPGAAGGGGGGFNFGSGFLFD

In assay [1] the target is T2, GST-Nv-NF-kB (Cys allele) (UniProt E5G601).
T2 sequence: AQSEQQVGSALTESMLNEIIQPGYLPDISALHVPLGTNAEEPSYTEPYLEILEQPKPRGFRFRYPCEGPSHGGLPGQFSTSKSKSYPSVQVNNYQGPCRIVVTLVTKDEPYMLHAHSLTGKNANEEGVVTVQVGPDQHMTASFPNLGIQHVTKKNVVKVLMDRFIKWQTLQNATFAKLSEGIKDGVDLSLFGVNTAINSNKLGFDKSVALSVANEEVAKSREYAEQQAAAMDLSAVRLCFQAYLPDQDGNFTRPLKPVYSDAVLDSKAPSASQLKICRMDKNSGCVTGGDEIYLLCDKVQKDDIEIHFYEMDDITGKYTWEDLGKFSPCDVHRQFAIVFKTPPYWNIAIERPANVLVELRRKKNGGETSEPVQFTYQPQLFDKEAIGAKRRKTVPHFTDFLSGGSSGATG

A further assay addresses T3, GST-Co-NF-kB (UniProt F1ARL5).
T3 sequence: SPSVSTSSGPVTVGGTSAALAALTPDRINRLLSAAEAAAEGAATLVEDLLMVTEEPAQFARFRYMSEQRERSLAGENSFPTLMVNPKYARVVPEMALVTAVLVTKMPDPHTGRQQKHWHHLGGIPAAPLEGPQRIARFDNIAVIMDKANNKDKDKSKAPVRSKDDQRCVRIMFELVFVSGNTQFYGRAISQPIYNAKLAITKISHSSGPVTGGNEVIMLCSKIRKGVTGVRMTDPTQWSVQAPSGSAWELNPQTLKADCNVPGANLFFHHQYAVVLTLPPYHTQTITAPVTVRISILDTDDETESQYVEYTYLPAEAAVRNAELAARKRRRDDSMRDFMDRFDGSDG

The target in the next assay is T4, GST-Dm-Relish (UniProt Q94527).
T4 sequence: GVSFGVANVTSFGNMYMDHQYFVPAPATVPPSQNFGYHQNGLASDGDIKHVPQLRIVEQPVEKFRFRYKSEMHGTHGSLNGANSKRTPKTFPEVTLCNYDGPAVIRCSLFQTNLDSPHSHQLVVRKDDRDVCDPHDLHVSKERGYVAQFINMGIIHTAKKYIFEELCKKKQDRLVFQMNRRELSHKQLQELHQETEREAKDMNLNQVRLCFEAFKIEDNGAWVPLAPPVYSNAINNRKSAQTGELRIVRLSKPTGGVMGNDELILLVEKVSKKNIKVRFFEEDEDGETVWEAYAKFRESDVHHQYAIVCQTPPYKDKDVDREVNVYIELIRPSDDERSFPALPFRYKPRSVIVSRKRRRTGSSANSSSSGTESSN

For the next assay, the target named is T5, GST-Aq-NF-kB (UniProt A9Y5G7).
T5 sequence: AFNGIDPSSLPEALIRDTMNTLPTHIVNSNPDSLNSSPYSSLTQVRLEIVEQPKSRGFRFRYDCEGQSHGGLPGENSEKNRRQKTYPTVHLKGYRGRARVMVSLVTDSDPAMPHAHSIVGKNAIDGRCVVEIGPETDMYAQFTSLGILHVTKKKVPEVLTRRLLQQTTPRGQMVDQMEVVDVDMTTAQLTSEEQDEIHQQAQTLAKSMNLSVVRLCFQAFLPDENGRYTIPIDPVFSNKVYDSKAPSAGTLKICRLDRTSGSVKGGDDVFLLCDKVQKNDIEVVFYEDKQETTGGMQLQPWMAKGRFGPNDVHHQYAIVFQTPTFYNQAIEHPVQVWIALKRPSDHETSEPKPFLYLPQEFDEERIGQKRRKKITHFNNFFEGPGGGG

As for “CCGATTAACATCATCAGGTGCCTTGATGTTAATCGGGTCTTGATTCGCTTGACGCTGCTG”, the binding signal was 0.136 z-score in the assay with GST-Ap-NF-kB RHD; 0.0686 z-score in assay [1]; -0.692 z-score with GST-Co-NF-kB; -0.252 z-score with GST-Dm-Relish; 0.13 z-score with GST-Aq-NF-kB.
For “CCGATTAACATCAAAGTTTAGTCTGATGTTAATCGGGTCTTGATTCGCTTGACGCTGCTG”, in that order: -0.239 z-score, -0.215 z-score, -0.952 z-score, -0.448 z-score and -0.513 z-score.
Taken in the same sequence, the figures for “CCGATTAACATCAGACGAGACCGTGATGTTAATCGGGTCTTGATTCGCTTGACGCTGCTG” were -0.648 z-score, -0.143 z-score, -0.09 z-score, -0.16 z-score and -0.316 z-score.
“CCGATTAACATCACGACTTCTATTGATGTTAATCGGGTCTTGATTCGCTTGACGCTGCTG”: the binding signal in the assay with GST-Ap-NF-kB RHD was -0.248 z-score; in assay [1], -0.294 z-score; with GST-Co-NF-kB, 0.352 z-score; with GST-Dm-Relish it was -0.581 z-score; in the assay with GST-Aq-NF-kB, -0.451 z-score.
“CCGATTAACATCAGCATATGCAGTGATGTTAATCGGGTCTTGATTCGCTTGACGCTGCTG”: the binding signal with GST-Ap-NF-kB RHD is -0.199 z-score; in assay [1] it was 0.214 z-score; with GST-Co-NF-kB it was -1.21 z-score; in the assay with GST-Dm-Relish, -0.412 z-score; with GST-Aq-NF-kB, -0.354 z-score.
For “CCGATTAACATCAAATTTTCCACTGATGTTAATCGGGTCTTGATTCGCTTGACGCTGCTG”, in that order: -0.147 z-score, 0.224 z-score, 0.462 z-score, 1.2 z-score and 0.542 z-score.
For “CCGATTAACATCAGTAAGCAAGCTGATGTTAATCGGGTCTTGATTCGCTTGACGCTGCTG”, in that order: -0.733 z-score, -0.0616 z-score, -1.12 z-score, -0.777 z-score and -0.346 z-score.
Taken in the same sequence, the figures for “CCGATTAACATCAGTGAGTTCTATGATGTTAATCGGGTCTTGATTCGCTTGACGCTGCTG” were -0.324 z-score, -0.399 z-score, -0.125 z-score, 0.0233 z-score and -0.365 z-score.
Turning to “CCGATTAACATCATTACCGTAGTTGATGTTAATCGGGTCTTGATTCGCTTGACGCTGCTG”, the binding signal with GST-Ap-NF-kB RHD was -0.157 z-score; in assay [1] it was -0.238 z-score; with GST-Co-NF-kB it was 0.414 z-score; with GST-Dm-Relish, 0.0634 z-score; in the assay with GST-Aq-NF-kB, 0.268 z-score.
For “CCGATTAACATCACAGACCCAGCTGATGTTAATCGGGTCTTGATTCGCTTGACGCTGCTG”, in that order: 0.351 z-score, -0.378 z-score, -0.739 z-score, 0.0222 z-score and -0.277 z-score.
Consider “CCGATTAACATCATCCGATAAGTTGATGTTAATCGGGTCTTGATTCGCTTGACGCTGCTG”, for which the binding signal was -0.0396 z-score with GST-Ap-NF-kB RHD; -0.365 z-score in assay [1]; -0.186 z-score in the assay with GST-Co-NF-kB; -0.352 z-score with GST-Dm-Relish; -0.128 z-score with GST-Aq-NF-kB.
Taken in the same sequence, the figures for “CCGATTAACATCACCATCCAACTTGATGTTAATCGGGTCTTGATTCGCTTGACGCTGCTG” were 0.0058 z-score, 0.231 z-score, 0.263 z-score, 0.301 z-score and -0.0376 z-score.
Taken in the same sequence, the figures for “CCGATTAACATCACTCGCAATTGTGATGTTAATCGGGTCTTGATTCGCTTGACGCTGCTG” were -0.331 z-score, -0.022 z-score, 0.365 z-score, 0.814 z-score and -0.479 z-score.
Taken in the same sequence, the figures for “CCGATTAACATCACGCAAACGCCTGATGTTAATCGGGTCTTGATTCGCTTGACGCTGCTG” were -0.473 z-score, -0.836 z-score, -1.01 z-score, -0.774 z-score and -0.597 z-score.
Consider “CCGATTAACATCAGCACCCTCCATGATGTTAATCGGGTCTTGATTCGCTTGACGCTGCTG”, for which the binding signal with GST-Ap-NF-kB RHD amounted to 0.44 z-score; in assay [1], 0.59 z-score; with GST-Co-NF-kB, 0.765 z-score; in the assay with GST-Dm-Relish, 0.262 z-score; with GST-Aq-NF-kB, 0.734 z-score.
Taken in the same sequence, the figures for “CCGATTAACATCAGTAGCGCAATTGATGTTAATCGGGTCTTGATTCGCTTGACGCTGCTG” were 0.246 z-score, -0.739 z-score, -0.718 z-score, -0.849 z-score and -0.334 z-score.
For “CCGATTAACATCACGTATCACCGTGATGTTAATCGGGTCTTGATTCGCTTGACGCTGCTG”, in that order: 0.143 z-score, 0.0719 z-score, -0.803 z-score, 0.676 z-score and -0.561 z-score.
Regarding “CCGATTAACATCAGGAATATTCATGATGTTAATCGGGTCTTGATTCGCTTGACGCTGCTG”, the binding signal with GST-Ap-NF-kB RHD is -0.259 z-score; in assay [1] it was 0.385 z-score; with GST-Co-NF-kB it was -0.474 z-score; with GST-Dm-Relish, -0.472 z-score; with GST-Aq-NF-kB, -0.0688 z-score.
Regarding “CCGATTAACATCACGATAGGCCGTGATGTTAATCGGGTCTTGATTCGCTTGACGCTGCTG”, the binding signal is -0.962 z-score in the assay with GST-Ap-NF-kB RHD; -0.212 z-score in assay [1]; -1.11 z-score with GST-Co-NF-kB; 0.124 z-score with GST-Dm-Relish; -0.716 z-score with GST-Aq-NF-kB.
For “CCGATTAACATCAATGAGCTCTTTGATGTTAATCGGGTCTTGATTCGCTTGACGCTGCTG”, the binding signal with GST-Ap-NF-kB RHD is -0.76 z-score; in assay [1] it was 0.173 z-score; with GST-Co-NF-kB, -0.807 z-score; with GST-Dm-Relish, -1.31 z-score; with GST-Aq-NF-kB it was -0.605 z-score.
As to “CCGATTAACATCAAAAATTCCGATGATGTTAATCGGGTCTTGATTCGCTTGACGCTGCTG”, the binding signal with GST-Ap-NF-kB RHD was -0.467 z-score; in assay [1] it was -0.083 z-score; with GST-Co-NF-kB it was 0.113 z-score; with GST-Dm-Relish it was 0.741 z-score; with GST-Aq-NF-kB it was 0.888 z-score.
Taken in the same sequence, the figures for “CCGATTAACATCAGCCATGGTGATGATGTTAATCGGGTCTTGATTCGCTTGACGCTGCTG” were 0.235 z-score, -0.574 z-score, 0.0829 z-score, -0.435 z-score and -0.147 z-score.
In the case of “CCGATTAACATCATAGACCACATTGATGTTAATCGGGTCTTGATTCGCTTGACGCTGCTG”, the binding signal was -0.116 z-score in the assay with GST-Ap-NF-kB RHD; -0.384 z-score in assay [1]; 0.33 z-score with GST-Co-NF-kB; -0.563 z-score with GST-Dm-Relish; -0.495 z-score with GST-Aq-NF-kB.
For “CCGATTAACATCACAAGGCTGCGTGATGTTAATCGGGTCTTGATTCGCTTGACGCTGCTG”, in that order: 0.196 z-score, 0.428 z-score, 0.488 z-score, 0.365 z-score and -0.326 z-score.
For “CCGATTAACATCAATGAAATTCCTGATGTTAATCGGGTCTTGATTCGCTTGACGCTGCTG”, in that order: -0.17 z-score, -0.0126 z-score, 0.229 z-score, 0.61 z-score and 0.411 z-score.
Taken in the same sequence, the figures for “CCGATTAACATCAGTTATCAGTATGATGTTAATCGGGTCTTGATTCGCTTGACGCTGCTG” were -0.34 z-score, -0.63 z-score, 0.128 z-score, -0.214 z-score and -0.207 z-score.
Regarding “CCGATTAACATCAGAATCTTTGGTGATGTTAATCGGGTCTTGATTCGCTTGACGCTGCTG”, the binding signal was 0.135 z-score in the assay with GST-Ap-NF-kB RHD; -0.971 z-score in assay [1]; 0.0687 z-score with GST-Co-NF-kB; -0.228 z-score with GST-Dm-Relish; -0.203 z-score with GST-Aq-NF-kB.
Taken in the same sequence, the figures for “CCGATTAACATCAATCCGGAAAATGATGTTAATCGGGTCTTGATTCGCTTGACGCTGCTG” were -0.649 z-score, 0.129 z-score, -0.795 z-score, -0.704 z-score and -0.26 z-score.
